# This is one part of the list.
# B1: CVN-E41G (protein)
# chain: MHHHHHHENLYFQSGNFSQACYNSAIQGSVLTSTCIRTNGGYNTSSIDLNSVIANVDGSLKWQGSNFIETCRNTQLAGSSELAAECKTRAQQFVSTKINLDDHIAAIDGTLKYE
# Columns and labels:
# Assay in all cases: glycan array binding signal (z-score within array); higher = stronger binding
# Conditions in all cases: glycan notation: IUPAC condensed, linker removed; mutation: E41A
# [1] = biological target: GlcNAc(a1-6)Gal(b1-4)GlcNAc
# How it was run: (§1)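 Glycan array binding is given as a within-array Z-score, which can be read as non-binding when negative. The arrays, 3228 of them, came from the Consortium for Functional Glycomics database and were retained only where the protein sequence was available. Z-scores were averaged across arrays of the same protein sequence at different concentrations or buffers and across linkers.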
# [2] = biological target: GlcNAc(b1-2)Gal(b1-3)GalNAc
# How it was run: as §1
# [3] = biological target: GlcNAc(b1-2)Man(a1-3)[GlcNAc(b1-2)Man(a1-6)]Man(b1-4)GlcNAc(b1-4)GlcNAc
# How it was run: as §1
# [4] = biological target: GlcNAc(b1-2)Man(a1-3)[GlcNAc(b1-2)Man(a1-6)]Man(b1-4)GlcNAc(b1-4)[Fuc(a1-6)]GlcNAc
# How it was run: as §1
# [5] = biological target: GlcNAc(b1-2)Man(a1-3)[GlcNAc(b1-4)][GlcNAc(b1-2)Man(a1-6)]Man(b1-4)GlcNAc(b1-4)GlcNAc
# How it was run: as §1
# [6] = biological target: GlcNAc(b1-2)Man(a1-3)[GlcNAc(b1-4)][GlcNAc(b1-2)Man(a1-6)]Man(b1-4)GlcNAc(b1-4)[Fuc(a1-6)]GlcNAc
# How it was run: as §1
# [7] = biological target: GlcNAc(b1-2)[GlcNAc(b1-4)]Man(a1-3)[GlcNAc(b1-2)Man(a1-6)]Man(b1-4)GlcNAc(b1-4)GlcNAc
# How it was run: as §1
# [8] = biological target: GlcNAc(b1-2)[GlcNAc(b1-4)]Man(a1-3)[GlcNAc(b1-4)][GlcNAc(b1-2)Man(a1-6)]Man(b1-4)GlcNAc(b1-4)GlcNAc
# How it was run: as §1
# [9] = biological target: GlcNAc(b1-2)[GlcNAc(b1-4)]Man(a1-3)[GlcNAc(b1-4)][GlcNAc(b1-2)[GlcNAc(b1-6)]Man(a1-6)]Man(b1-4)GlcNAc(b1-4)GlcNAc
# How it was run: as §1
# [10] = biological target: GlcNAc(b1-2)[GlcNAc(b1-4)]Man(a1-3)[GlcNAc(b1-4)][GlcNAc(b1-2)[GlcNAc(b1-6)]Man(a1-6)]Man(b1-4)GlcNAc(b1-4)[Fuc(a1-6)]GlcNAc
# How it was run: as §1
# [11] = biological target: GlcNAc(b1-2)[GlcNAc(b1-6)]Man(a1-6)[GlcNAc(b1-2)Man(a1-3)]Man(b1-4)GlcNAc(b1-4)GlcNAc
# How it was run: as §1
# [12] = biological target: GlcNAc(b1-2)[GlcNAc(b1-6)]Man(a1-6)[GlcNAc(b1-2)Man(a1-3)]Man(b1-4)GlcNAc(b1-4)[Fuc(a1-6)]GlcNAc
# How it was run: as §1
# [13] = biological target: GlcNAc(b1-2)[GlcNAc(b1-6)]Man(a1-6)[GlcNAc(b1-4)][GlcNAc(b1-2)Man(a1-3)]Man(b1-4)GlcNAc(b1-4)GlcNAc
# How it was run: as §1
# [14] = biological target: GlcNAc(b1-3)Fuc
# How it was run: as §1
# [15] = biological target: GlcNAc(b1-3)Gal
# How it was run: as §1
# [16] = biological target: GlcNAc(b1-3)Gal(b1-3)GalNAc
# How it was run: as §1
# [17] = biological target: GlcNAc(b1-3)Gal(b1-4)Glc
# How it was run: as §1
# [18] = biological target: GlcNAc(b1-3)Gal(b1-4)GlcNAc
# How it was run: as §1
# [19] = biological target: GlcNAc(b1-3)Gal(b1-4)GlcNAc(b1-2)Man(a1-3)[GlcNAc(b1-3)Gal(b1-4)GlcNAc(b1-2)Man(a1-6)]Man(b1-4)GlcNAc(b1-4)GlcNAc
# How it was run: as §1
# [20] = biological target: GlcNAc(b1-3)Gal(b1-4)GlcNAc(b1-2)Man(a1-3)[GlcNAc(b1-3)Gal(b1-4)GlcNAc(b1-2)Man(a1-6)]Man(b1-4)GlcNAc(b1-4)[Fuc(a1-6)]GlcNAc
# How it was run: as §1
# [21] = biological target: GlcNAc(b1-3)Gal(b1-4)GlcNAc(b1-2)[GlcNAc(b1-3)Gal(b1-4)GlcNAc(b1-6)]Man(a1-6)[GlcNAc(b1-3)Gal(b1-4)GlcNAc(b1-2)Man(a1-3)]Man(b1-4)GlcNAc(b1-4)GlcNAc
# How it was run: as §1
# [22] = biological target: GlcNAc(b1-3)Gal(b1-4)GlcNAc(b1-3)Gal(b1-4)GlcNAc
# How it was run: as §1
# [23] = biological target: GlcNAc(b1-3)Gal(b1-4)GlcNAc(b1-3)Gal(b1-4)GlcNAc(b1-2)Man(a1-3)[GlcNAc(b1-3)Gal(b1-4)GlcNAc(b1-3)Gal(b1-4)GlcNAc(b1-2)Man(a1-6)]Man(b1-4)GlcNAc(b1-4)GlcNAc
# How it was run: as §1
# [24] = biological target: GlcNAc(b1-3)Gal(b1-4)GlcNAc(b1-3)Gal(b1-4)GlcNAc(b1-2)Man(a1-3)[GlcNAc(b1-3)Gal(b1-4)GlcNAc(b1-3)Gal(b1-4)GlcNAc(b1-2)Man(a1-6)]Man(b1-4)GlcNAc(b1-4)[Fuc(a1-6)]GlcNAc
# How it was run: as §1
# [25] = biological target: GlcNAc(b1-3)Gal(b1-4)GlcNAc(b1-3)Gal(b1-4)GlcNAc(b1-2)[GlcNAc(b1-3)Gal(b1-4)GlcNAc(b1-3)Gal(b1-4)GlcNAc(b1-6)]Man(a1-6)[GlcNAc(b1-3)Gal(b1-4)GlcNAc(b1-3)Gal(b1-4)GlcNAc(b1-2)Man(a1-3)]Man(b1-4)GlcNAc(b1-4)[Fuc(a1-6)]GlcNAc
# How it was run: as §1
# [26] = biological target: GlcNAc(b1-3)Gal(b1-4)GlcNAc(b1-3)Gal(b1-4)GlcNAc(b1-3)Gal(b1-4)GlcNAc(b1-2)Man(a1-3)[GlcNAc(b1-3)Gal(b1-4)GlcNAc(b1-3)Gal(b1-4)GlcNAc(b1-3)Gal(b1-4)GlcNAc(b1-2)Man(a1-6)]Man(b1-4)GlcNAc(b1-4)GlcNAc
# How it was run: as §1
# [27] = biological target: GlcNAc(b1-3)Gal(b1-4)GlcNAc(b1-3)Gal(b1-4)GlcNAc(b1-3)Gal(b1-4)GlcNAc(b1-2)Man(a1-3)[GlcNAc(b1-3)Gal(b1-4)GlcNAc(b1-3)Gal(b1-4)GlcNAc(b1-3)Gal(b1-4)GlcNAc(b1-2)Man(a1-6)]Man(b1-4)GlcNAc(b1-4)[Fuc(a1-6)]GlcNAc
# How it was run: as §1
# [28] = biological target: GlcNAc(b1-3)Gal(b1-4)GlcNAc(b1-3)Gal(b1-4)GlcNAc(b1-3)Gal(b1-4)GlcNAc(b1-2)[GlcNAc(b1-3)Gal(b1-4)GlcNAc(b1-3)Gal(b1-4)GlcNAc(b1-3)Gal(b1-4)GlcNAc(b1-6)]Man(a1-6)[GlcNAc(b1-3)Gal(b1-4)GlcNAc(b1-3)Gal(b1-4)GlcNAc(b1-3)Gal(b1-4)GlcNAc(b1-2)Man(a1-3)]Man(b1-4)GlcNAc(b1-4)[Fuc(a1-6)]GlcNAc
# How it was run: as §1
# [29] = biological target: GlcNAc(b1-3)Gal(b1-4)GlcNAc(b1-3)Gal(b1-4)GlcNAc(b1-3)Gal(b1-4)GlcNAc(b1-3)Gal(b1-4)GlcNAc(b1-2)Man(a1-3)[GlcNAc(b1-3)Gal(b1-4)GlcNAc(b1-3)Gal(b1-4)GlcNAc(b1-3)Gal(b1-4)GlcNAc(b1-3)Gal(b1-4)GlcNAc(b1-2)Man(a1-6)]Man(b1-4)GlcNAc(b1-4)GlcNAc
# How it was run: as §1
# [30] = biological target: GlcNAc(b1-3)Gal(b1-4)GlcNAc(b1-3)Gal(b1-4)GlcNAc(b1-3)Gal(b1-4)GlcNAc(b1-3)Gal(b1-4)GlcNAc(b1-2)Man(a1-3)[GlcNAc(b1-3)Gal(b1-4)GlcNAc(b1-3)Gal(b1-4)GlcNAc(b1-3)Gal(b1-4)GlcNAc(b1-3)Gal(b1-4)GlcNAc(b1-2)Man(a1-6)]Man(b1-4)GlcNAc(b1-4)[Fuc(a1-6)]GlcNAc
# How it was run: as §1
# [31] = biological target: GlcNAc(b1-3)Gal(b1-4)GlcNAc(b1-3)Gal(b1-4)GlcNAc(b1-3)Gal(b1-4)GlcNAc(b1-3)Gal(b1-4)GlcNAc(b1-2)[GlcNAc(b1-3)Gal(b1-4)GlcNAc(b1-3)Gal(b1-4)GlcNAc(b1-3)Gal(b1-4)GlcNAc(b1-3)Gal(b1-4)GlcNAc(b1-6)]Man(a1-6)[GlcNAc(b1-3)Gal(b1-4)GlcNAc(b1-3)Gal(b1-4)GlcNAc(b1-3)Gal(b1-4)GlcNAc(b1-3)Gal(b1-4)GlcNAc(b1-2)Man(a1-3)]Man(b1-4)GlcNAc(b1-4)[Fuc(a1-6)]GlcNAc
# How it was run: as §1
# [32] = biological target: GlcNAc(b1-3)Gal(b1-4)GlcNAc(b1-3)Gal(b1-4)GlcNAc(b1-3)GalNAc
# How it was run: as §1
# [33] = biological target: GlcNAc(b1-3)Gal(b1-4)GlcNAc(b1-3)GalNAc
# How it was run: as §1
# [34] = biological target: GlcNAc(b1-3)Gal(b1-4)GlcNAc(b1-3)[GlcNAc(b1-3)Gal(b1-4)GlcNAc(b1-3)]GalNAc
# How it was run: as §1
# [35] = biological target: GlcNAc(b1-3)Gal(b1-4)GlcNAc(b1-6)[Gal(b1-3)]GalNAc
# How it was run: as §1
# [36] = biological target: GlcNAc(b1-3)Gal(b1-4)GlcNAc(b1-6)[GlcNAc(b1-3)Gal(b1-3)]GalNAc
# How it was run: as §1
# [37] = biological target: GlcNAc(b1-3)Gal(b1-4)GlcNAc(b1-6)[GlcNAc(b1-3)]Gal(b1-4)GlcNAc
# How it was run: as §1
# [38] = biological target: GlcNAc(b1-3)GalNAc
# How it was run: as §1
# [39] = biological target: GlcNAc(b1-3)Man
# How it was run: as §1
# [40] = biological target: GlcNAc(b1-3)[GlcNAc(b1-4)][GlcNAc(b1-6)]GlcNAc
# How it was run: as §1
# [41] = biological target: GlcNAc(b1-3)[GlcNAc(b1-6)]Gal(b1-4)GlcNAc
# How it was run: as §1
# [42] = biological target: GlcNAc(b1-3)[GlcNAc(b1-6)]GalNAc
# How it was run: as §1
# [43] = biological target: GlcNAc(b1-4)Gal(b1-4)GlcNAc
# How it was run: as §1
# [44] = biological target: GlcNAc(b1-4)GlcNAc
# How it was run: as §1
# [45] = biological target: GlcNAc(b1-4)GlcNAc(b1-4)GlcNAc
# How it was run: as §1
binder,measurement,setting,value
B1,glycan array binding signal (z-score),[1],-0.208
same,glycan array binding signal (z-score),[2],-0.267
same,glycan array binding signal (z-score),[3],-0.23
same,glycan array binding signal (z-score),[4],-0.184
same,glycan array binding signal (z-score),[5],-0.19
same,glycan array binding signal (z-score),[6],-0.195
same,glycan array binding signal (z-score),[7],-0.177
same,glycan array binding signal (z-score),[8],-0.211
same,glycan array binding signal (z-score),[9],-0.201
same,glycan array binding signal (z-score),[10],-0.212
same,glycan array binding signal (z-score),[11],-0.181
same,glycan array binding signal (z-score),[12],-0.182
same,glycan array binding signal (z-score),[13],-0.212
same,glycan array binding signal (z-score),[14],-0.189
same,glycan array binding signal (z-score),[15],-0.223
same,glycan array binding signal (z-score),[16],-0.219
same,glycan array binding signal (z-score),[17],-0.225
same,glycan array binding signal (z-score),[18],-0.211
same,glycan array binding signal (z-score),[19],-0.242
same,glycan array binding signal (z-score),[20],-0.035
same,glycan array binding signal (z-score),[21],-0.064
same,glycan array binding signal (z-score),[22],-0.213
same,glycan array binding signal (z-score),[23],-0.16
same,glycan array binding signal (z-score),[24],-0.135
same,glycan array binding signal (z-score),[25],-0.141
same,glycan array binding signal (z-score),[26],-0.194
same,glycan array binding signal (z-score),[27],-0.087
same,glycan array binding signal (z-score),[28],-0.165
same,glycan array binding signal (z-score),[29],-0.204
same,glycan array binding signal (z-score),[30],-0.088
same,glycan array binding signal (z-score),[31],-0.135
same,glycan array binding signal (z-score),[32],-0.168
same,glycan array binding signal (z-score),[33],-0.17
same,glycan array binding signal (z-score),[34],0.323
same,glycan array binding signal (z-score),[35],-0.13
same,glycan array binding signal (z-score),[36],-0.104
same,glycan array binding signal (z-score),[37],-0.193
same,glycan array binding signal (z-score),[38],-0.228
same,glycan array binding signal (z-score),[39],-0.223
same,glycan array binding signal (z-score),[40],-0.222
same,glycan array binding signal (z-score),[41],-0.239
same,glycan array binding signal (z-score),[42],-0.223
same,glycan array binding signal (z-score),[43],-0.206
same,glycan array binding signal (z-score),[44],-0.083
same,glycan array binding signal (z-score),[45],-0.201

# From the supplement of paper PMC8728848
